Measurements as given in PubChem BioAssay AID1347073 (National Center for Advancing Translational Sciences (NCATS), 2019).
Screen size: about 45,000 compounds; about 200 (0.44%) were called active. Inconclusive results (about 7%) are left out. Calls follow the shape of the dose curve; as a rule, active = well fitted activation curve with a large enough effect; inconclusive = small, poorly fitted or top-dose-only effect; inactive = no such curve, though single readings can be large or run the other way. The list shows a part of the results.

Assay: qHTS of TDP-43 Inhibitors: NCGC Sytravon Library Screen; also: nearly all actives have a fitted effect of over 55% in size; as to growth rescue (activation): 0% is about no effect
Conditions: yeast TDP-43 toxicity rescue, BacTiter-Glo growth, 24 h; series mostly up to 46.1 µM; growth rescue (activation): at the top concentration
Summary of the method: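 TDP-43-expressing yeast, pregrown in raffinose, seeded at OD600 0.02 in galactose medium with compound for 24 hr at 30 deg C. Growth read by BacTiter-Glo luminescence, so rescue of toxicity appears as activation.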
Potency is read from the fitted curve at half-maximal effect.

Structure (SMILES)	growth rescue (activation)	Potency
O=C1CN(C(=O)CSc2nnc(Nc3ccccc3)s2)c2ccccc2N1	inactive: 10.5%	
COc1ccc(OC)c(C(=O)c2ccc(C(=O)N3CCN(Cc4csc(C)n4)CC3)cc2)c1	inactive: -14.5%	
CC(=O)/C(N=Nc1ccc(C(=O)O)cc1)=C(\C)O	inactive: 19.5%	
O=C(O)c1cc(-c2cc3ccccc3o2)nn1-c1ccccc1	inactive: 9.63%	
Cc1cccc(NS(=O)(=O)c2ccc3[nH]c(=O)[nH]c3c2)c1C	inactive: 0.669%	
CCOc1ccccc1NC(=O)CCNS(=O)(=O)c1cccc2nsnc12	inactive: -3.42%	
Cc1cc(C)nc(N/N=C/c2cn[nH]c2-c2ccccc2)n1	inactive: 12.8%	
CCOC(=O)c1cc(CC)sc1N1C(=O)CC(Sc2ncccc2C(=O)O)C1=O (stereo unspecified)	inactive: -8.6%	
O=C(CNC(=O)c1ccc2c(c1)OCCO2)N/N=C/c1ccc([N+](=O)[O-])cc1	inactive: -9.4%	
CCOc1ccc(NC(=O)C/C(C)=N/NC(=O)COc2ccc(Br)cc2C)cc1	inactive: 16.3%	
CC(/C=N/n1c(-c2cc(C)[nH]n2)n[nH]c1=S)=C\c1ccccc1	inactive: 20%	
Cc1ccc(Cl)cc1-c1cc(C(=O)NCc2cc(C(F)(F)F)cc(C(F)(F)F)c2)[nH]n1	inactive: 3.29%	
CCOc1ccccc1N1CCN(S(=O)(=O)c2cc(C)ccc2OC)CC1	inactive: 37.6%	
Cc1[nH]c2ccccc2c1/C=N/NC(=O)CNC(=O)COc1ccccc1	inactive: -13.2%	
Cc1ccccc1N1CCN(C2CCCN(C(=O)c3csc(C(C)C)n3)C2)CC1 (stereo unspecified)	inactive: 6.93%	
NS(=O)(=O)c1ccc(N/C=C\C(=O)c2cccc3ccccc23)cc1	inactive: 5.09%	
O=C1NCCN(C(=O)CCc2nnc(-c3ccsc3)o2)C1c1ccc(F)cc1 (stereo unspecified)	inactive: -10.3%	
CCOc1cc(N2CCOCC2)c(OCC)cc1NC(=O)CN1CCN(Cc2ccc3c(c2)OCO3)CC1	inactive: 6.72%	
Cc1ccc(S(=O)(=O)N2CCN(C(C)C(=O)N3CCCc4ccccc43)CC2)cc1 (stereo unspecified)	inactive: 3.77%	
O=C1CN(C(=O)/C=C/c2ccc(Cl)cc2)c2ccccc2N1	inactive: 18.3%	
CCOC(=O)c1sc(SC)nc1N	inactive: 18.3%	
OCc1ccccc1OCCCN1CCC(Cc2ccccc2)CC1	inactive: 2.1%	

Structure (SMILES)	growth rescue (activation)	Potency
CCCCNC(=O)C1(C)CCN1C(=O)c1cccc2c1OCCO2 (stereo unspecified)	inactive: -4.89%	
C=CCNc1ncnc2c1ncn2[C@H]1CN(Cc2ccc3c(c2)OCO3)C[C@@H](CO)O1	inactive: 9.65%	
Cc1ccc(S(=O)(=O)N2CCN(C(=O)N(C)C)CC2)cc1C	inactive: -4.98%	
COc1ccc(CNC(=O)c2cc(=O)c3ccc(C)c(C)c3o2)cc1	inactive: 19.9%	
Clc1ccc(OCCOCCOc2cccc3cccnc23)c(Br)c1	inactive: 0.338%	
CC(NC(=O)c1ccccc1F)c1nnc(SCC(=O)NC2=NCCS2)n1C (stereo unspecified)	inactive: -0.473%	
CCCSc1nc2c3c(sc2c(=O)[nH]1)CC(C)(CC)OC3 (stereo unspecified)	inactive: 2.98%	
O=C(CN1C(=O)c2ccccc2C1=O)Nc1ccc(-c2nc3ccccc3o2)cc1	inactive: 23.7%	
CC1Cc2ccccc2N1C(=O)COC(=O)c1c2c(nc3ccccc13)CCCCC2 (stereo unspecified)		active: 14.1 µM
COc1cc(-c2nnc(SCC(=O)O)n2-c2ccccc2)cc(OC)c1OC	inactive: -3.28%	
Cc1ccc(C)c(-c2cc(C(=O)Nc3cccnc3)c3ccccc3n2)c1	inactive: -6.32%	
Cc1sc2ncn(CC(=O)N3CCN(c4ccccn4)CC3)c(=O)c2c1S(=O)(=O)N1CCC(C)CC1	inactive: 3.7%	
CCC(C(=O)N1CCN(c2ccccn2)CC1)n1nc(C)n2c(cc3occc32)c1=O (stereo unspecified)	inactive: -9.93%	
CCn1nc(C(C)C(=O)O)c2ccccc2c1=O (stereo unspecified)	inactive: 15.3%	
Cc1ccc(C)c(NC(=S)Nc2cccc3cnccc23)c1	inactive: 5.87%	
COc1ccc(CNC(=O)CN(C(=O)c2csnn2)c2ccc3c(c2)OCCO3)cc1	inactive: 8.34%	
CC(=O)N(C)c1ccc(NC(=O)Nc2ccc(C)c(C)c2)cc1	inactive: -7.07%	
CCOC(=O)C1Nc2ccc(Br)cc2C2C=CCC12 (stereo unspecified)	inactive: -3.23%	
CCCN(CCC)Cc1c(C(=O)N/N=C/c2cccs2)nnn1-c1nonc1N	inactive: -16.2%	
OCc1cccc(-c2csc(C(O)c3ccccc3)n2)c1 (stereo unspecified)	inactive: 29%	
COc1ccccc1C(=O)Nc1cc(Cl)ccc1O	inactive: 0.129%	
CNC(=O)/C(C#N)=C/c1ccc(-c2ccccc2[N+](=O)[O-])o1	inactive: 0.847%	

Structure (SMILES)	growth rescue (activation)	Potency
O=C(NNC(=O)c1ccccc1F)c1ccc(S(=O)(=O)N2CCCC2)cc1	inactive: 17.4%	
N#Cc1ccc(OCC(O)CN2CCN(C(c3ccccc3)c3ccccc3)CC2)cc1 (stereo unspecified)	inactive: 4.36%	
CC(C)N(C(=O)COC(=O)CNC(=O)c1ccc(Br)cc1)c1ccccc1	inactive: 6.4%	
CC(C)Cc1nnc(NC(=O)c2cc3c(s2)CCC3)s1	inactive: 2.84%	
C=CCn1c(SCC(=O)Nc2cccnc2Cl)nnc1-c1ccc(C(C)(C)C)cc1	inactive: 6.09%	
CSCCC(NC(=O)c1ccccc1Br)C(=O)NCC1CCCCC1 (stereo unspecified)	inactive: 6.11%	
C#CCOn1c(-n2nc(C)cc2C)nc2ccccc2c1=O	inactive: -0.61%	
OC1CCN(c2ncnc3c2nnn3Cc2c(F)cccc2Cl)CC1	inactive: 25.3%	
O=C1C2C3C=CC(C2C(=O)N1c1cccc(O)c1)C1C2C(=O)N(c4cccc(O)c4)C(=O)C2C31 (stereo unspecified)	inactive: 3.86%	
COc1ccc(-n2nc(C(=O)NCC(=O)N3CC(C)CC(C)C3)c3ccccc3c2=O)c(OC)c1 (stereo unspecified)	inactive: 11%	
O=C(NCc1ccccc1Cl)c1csc([C@@H]2O[C@H](CO)[C@@H](O)[C@H]2O)n1	inactive: -5.19%	
N=c1sccn1CC(=O)Nc1ccc(S(N)(=O)=O)cc1	inactive: -24.4%	
CN(C)c1ccc(CC(=O)N2CCCC(c3cc(C(=O)Nc4ccccc4)no3)C2)cc1 (stereo unspecified)	inactive: -3.1%	
C=CCn1cnnc1SCC(=O)N(C1CCCCC1)C1CCS(=O)(=O)C1 (stereo unspecified)	inactive: -5.43%	
Cc1cccc(OCC(=O)Nc2ccc(S(=O)(=O)N3CCCC3)cc2)c1	inactive: -11.4%	
CC(C)N(CCO)C(=O)CCc1nnc(Cc2cccc(C(F)(F)F)c2)o1	inactive: 6.26%	
COC(=O)c1cc(Br)c(=O)n(Cc2ccc(C(=O)O)cc2)c1	inactive: -7.46%	
COc1ccc(NS(=O)(=O)c2ccc(O)c([N+](=O)[O-])c2)cc1S(=O)(=O)N1CCCCC1	inactive: 16.2%	
Cc1ccc(C(C(=O)NCc2ccco2)N(C(=O)CNC(=O)c2cccs2)c2c(C)cccc2C)cc1 (stereo unspecified)	inactive: -6.5%	
COc1cc(Br)c(CC(=O)NNC(=O)c2ccc(F)cc2)cc1OC	inactive: 15.3%	
O=C(COc1cccnc1[N+](=O)[O-])N1N=C(c2ccc(Cl)cc2)CC1c1ccco1 (stereo unspecified)	inactive: 1.98%	
COc1ccc(CNC(=O)Cn2cc(C(F)(F)F)ccc2=O)cc1OC	inactive: 6.6%	
